Measured values from the supplement of paper PMC10126150.
Values marked as one replicate rest on one cluster of the flow cell; about a third of the high ones do not repeat.

These sequences were tested on ATP (assay: switch fluorescence ratio, 500 uM ATP over buffer (Cy3 cluster intensity, sum of 5 cycles each) (fold (ratio)); higher = stronger signal-on switching upon ATP binding; sequences stand for … in TCGTCGGCAGCGTCAGATGTGTATAAGAGACAGTTTTTTTTTTTTTTTTTTTTTTTTT…TC). Settings: aptamer strand: ATP DNA aptamer (quencher-CACCTGGGGGAGTATTGCGGAGGAAGG + anchor), 100 nM annealed; ATP concentration: 500 uM; one replicate.
In short: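 After annealing to 100 nM quencher-labelled ATP aptamer, Cy3-labelled switching-strand clusters on a modified Illumina MiSeq flow-cell were imaged in selection buffer. A second image followed after 15 min with 500 uM ATP at 22 °C, and five such buffer/ATP cycles were done, each separated by NaOH stripping and re-annealing. The fluorescence ratio, averaged per switch-domain sequence, is summed target-cycle over summed buffer-cycle Cy3 intensity per cluster, with clusters outside 100-1000 RFU excluded.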
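Note: ATP exposure 15 min at 22 °C before imaging.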

| Sequence | switch fluorescence ratio |
| --- | --- |
| GACATTCCCC | 1.18 |
| GACATTGAAG | 0.956 |
| GACATTGTAC | 1.18 |
| GACCACCTCG | 1.08 |
| GACCACGATA | 1.17 |
| GACCAGCAGC | 1.17 |
| GACCAGGCAG | 1.02 |
| GACCATTCCG | 0.955 |
| GACCCAAAAA | 1.8 |
| GACCCACCGC | 1.51 |
| GACCCATATC | 1.06 |
| GACCCCGGTT | 1.15 |
| GACCCTAGCT | 1.04 |
| GACCGAGGCC | 1.02 |
| GACCGCACGT | 1.53 |
| GACCGCTAGA | 1.08 |
| GACCGTCCCG | 1.05 |
| GACCGTGGCT | 0.994 |
| GACCTCCTAC | 2.15 |
| GACCTTCTAG | 1.02 |
| GACGAAAGGT | 1.02 |
| GACGACACCA | 1.38 |
| GACGACATTA | 1.2 |
| GACGACGTAG | 1.02 |
| GACGAGAGGA | 1.05 |

| Sequence | switch fluorescence ratio |
| --- | --- |
| GACGATCTTT | 1.04 |
| GACGCCGTAT | 0.997 |
| GACGCGACAG | 1.22 |
| GACGCGGCTG | 1 |
| GACGCGTA | 1.1 |
| GACGCTCTGC | 1.14 |
| GACGCTGAGT | 1.09 |
| GACGGAGATA | 1.09 |
| GACGGATTGG | 0.944 |
| GACGGCACGT | 1.02 |
| GACGGGCAGC | 1.06 |
| GACGGTTTCT | 0.995 |
| GACGTATGGT | 0.997 |
| GACGTATTTG | 0.956 |
| GACGTCACAA | 1.06 |
| GACGTCCGTG | 1.01 |
| GACGTTGCAT | 1.01 |
| GACTACAATT | 1.04 |
| GACTACCAGG | 1.84 |
| GACTACCTA | 1.13 |
| GACTACTATG | 1.05 |
| GACTATGTAC | 1.1 |
| GACTATTTGA | 1.05 |
| GACTCAAGAG | 1.01 |
| GACTCACAGG | 1.16 |

| Sequence | switch fluorescence ratio |
| --- | --- |
| GACTCATCCT | 1.04 |
| GACTCGGGTC | 1.03 |
| GACTCGTATG | 1 |
| GACTCTACTA | 1.33 |
| GACTCTATTG | 0.982 |
| GACTGGGATG | 0.995 |
| GACTGTGC | 0.938 |
| GACTGTGCGG | 1.02 |
| GACTTCGTGC | 1.06 |
| GACTTGGTGA | 1.03 |
| GACTTTCACC | 1.06 |
| GACTTTTGTG | 1.01 |
| GACTTTTTAT | 0.959 |
| GACTTTTTCT | 1.01 |
| GAGAAACTTA | 0.99 |
| GAGAACAGGG | 1.02 |
| GAGAACGGAA | 1.05 |
| GAGAACTTAT | 0.986 |
| GAGAAGGAGA | 1.06 |
| GAGAAGGAGT | 1.04 |
| GAGAATAAAG | 1.03 |
| GAGAATCCTC | 1.02 |
| GAGACAATGC | 1.93 |
| GAGACACATT | 1.01 |
| GAGACCCTCG | 0.97 |

| Sequence | switch fluorescence ratio |
| --- | --- |
| GAGACTGCAT | 0.999 |
| GAGACTTGAT | 0.991 |
| GAGAGAGCTT | 0.978 |
| GAGAGCCGGT | 0.943 |
| GAGAGCGGCA | 1.04 |
| GAGAGGAGTT | 0.997 |
| GAGAGGCGAT | 0.996 |
| GAGAGGTATC | 1.06 |
| GAGAGGTTAA | 1.04 |
| GAGAGTCGAT | 1.01 |
| GAGATACCGT | 1.02 |
| GAGATATGCG | 1.06 |
| GAGATCAGGC | 0.961 |
| GAGATGAGAA | 0.969 |
| GAGATGAGAG | 1.02 |
| GAGATGTGCT | 0.963 |
| GAGATTAGTT | 0.982 |
| GAGATTCTAC | 0.973 |
| GAGATTGTAT | 1.02 |
| GAGCAAATTA | 1.2 |
| GAGCACCCGG | 1.04 |
| GAGCACTCCG | 1.2 |
| GAGCCCGGGG | 1.04 |
| GAGCCCGGTA | 1.04 |
| GAGCCCTAGA | 0.999 |

| Sequence | switch fluorescence ratio |
| --- | --- |
| GAGCCGACTG | 0.991 |
| GAGCCGGGTG | 0.986 |
| GAGCGAACCT | 1.63 |
| GAGCGAAGAA | 1.03 |
| GAGCGAGGCA | 0.994 |
| GAGCGCTGGG | 0.984 |
| GAGCGGGTAG | 1.04 |
| GAGCTAATCA | 0.954 |
| GAGCTATACC | 1.55 |
| GAGCTCAGGA | 0.977 |
| GAGCTCGGGT | 1.01 |
| GAGCTGATCA | 1 |
| GAGCTTTAAG | 0.993 |
| GAGGAAACA | 1.01 |
| GAGGAAAGTG | 0.966 |
| GAGGAAGGCG | 1.04 |
| GAGGACGCTA | 2.48 |
| GAGGACGTCG | 1.05 |
| GAGGAGGTGG | 0.995 |
| GAGGAGTAAC | 0.981 |
| GAGGAGTAGA | 1.01 |
| GAGGATGGCC | 0.972 |
| GAGGCATCGG | 1.01 |
| GAGGCGATGT | 1.19 |
| GAGGCGATTA | 1.24 |

| Sequence | switch fluorescence ratio |
| --- | --- |
| GAGGCTGCA | 1.08 |
| GAGGGAAATT | 1.04 |
| GAGGGAATAA | 1.46 |
| GAGGGAATAG | 1.53 |
| GAGGGACGG | 0.972 |
| GAGGGAGAA | 0.967 |
| GAGGGAGGTT | 1.02 |
| GAGGGCACGT | 0.988 |
| GAGGGCGAGA | 1.01 |
| GAGGGGTCAA | 1.01 |
| GAGGGTCAGG | 0.994 |
| GAGGGTTATC | 0.997 |
| GAGGTATATG | 1.02 |
| GAGGTCATCA | 1.04 |
| GAGGTCTCCT | 0.991 |
| GAGGTCTTAA | 1.01 |
| GAGGTGCACA | 1.04 |
| GAGGTGCGAG | 1 |
| GAGGTGCGG | 0.975 |
| GAGGTGCTTG | 1.04 |
| GAGGTTCAAG | 0.947 |
| GAGGTTCGTG | 0.947 |
| GAGGTTTAAA | 0.985 |
| GAGGTTTCGG | 0.955 |
| GAGTACGACC | 1.09 |

| Sequence | switch fluorescence ratio |
| --- | --- |
| GAGTACTTGA | 1.01 |
| GAGTAGAGAG | 1.06 |
| GAGTAGCCGG | 0.916 |
| GAGTATATA | 1.02 |
| GAGTCACTAA | 1.06 |
| GAGTCATGGA | 0.956 |
| GAGTCCGGGA | 1.13 |
| GAGTCGAGGA | 1.03 |
| GAGTCTTAGT | 1 |
| GAGTGAATG | 0.963 |
| GAGTGACAGT | 0.981 |
| GAGTGCACAG | 0.974 |
| GAGTGCGAGC | 1.02 |
| GAGTGCGATT | 1.01 |
| GAGTGGATGG | 1.04 |
| GAGTGGCCTT | 0.998 |
| GAGTGGCGCT | 1.03 |
| GAGTTCAAGC | 0.984 |
| GAGTTCGTTG | 0.995 |
| GAGTTGTTCT | 0.945 |
| GAGTTTTGT | 0.954 |
| GATAAAACAA | 1.01 |
| GATAAACCTC | 1.2 |
| GATAAAGGAA | 0.989 |
| GATAAAGGAC | 1.03 |

| Sequence | switch fluorescence ratio |
| --- | --- |
| GATAACGG | 1 |
| GATAATCGGT | 0.963 |
| GATAATCTG | 0.997 |
| GATAATGAAG | 1.03 |
| GATAATGCA | 0.978 |
| GATAATGCAA | 1.08 |
| GATACAGCAA | 1.96 |
| GATACATTCT | 0.984 |
| GATACCACGC | 1.02 |
| GATACCACTG | 1.08 |
| GATACGTTG | 1 |
| GATACTAGTT | 0.986 |
| GATACTGCAA | 1.92 |
| GATACTGCCC | 1.68 |
| GATAGAACTA | 1.03 |
| GATAGACAAA | 0.971 |
| GATAGACGGC | 0.979 |
| GATAGAGGCA | 0.987 |
| GATAGATCGG | 0.96 |
| GATAGCCCTT | 1.04 |
| GATAGCTATA | 1.02 |
| GATAGGAACA | 1.01 |
| GATAGGAGGC | 0.956 |
| GATAGGGGTC | 1.02 |
| GATATAATT | 1.01 |
